The full ranking holds about 110,000 compounds; the median of “z-score” is about -0.1, and the highest 2% start at about 2. Some of the results follow.

The assay has as its target Metabotropic glutamate receptor 8 (Rattus norvegicus) (UniProt P70579). The assay can be described thus: mGluR8 Gi/Go-coupled signaling modulation – cell-based, rat, thallium flux, HTS, primary screen (AID 488969). As to conditions: HEK293 rat mGluR8, GIRK (G protein-gated inwardly rectifying potassium channel) thallium flux, FluoZin2; at 10 µM; stronger effect = higher value; submaximal glutamate (EC20) added with thallium.
UniProt P70579, sequence (P70579 whole entry, looked up): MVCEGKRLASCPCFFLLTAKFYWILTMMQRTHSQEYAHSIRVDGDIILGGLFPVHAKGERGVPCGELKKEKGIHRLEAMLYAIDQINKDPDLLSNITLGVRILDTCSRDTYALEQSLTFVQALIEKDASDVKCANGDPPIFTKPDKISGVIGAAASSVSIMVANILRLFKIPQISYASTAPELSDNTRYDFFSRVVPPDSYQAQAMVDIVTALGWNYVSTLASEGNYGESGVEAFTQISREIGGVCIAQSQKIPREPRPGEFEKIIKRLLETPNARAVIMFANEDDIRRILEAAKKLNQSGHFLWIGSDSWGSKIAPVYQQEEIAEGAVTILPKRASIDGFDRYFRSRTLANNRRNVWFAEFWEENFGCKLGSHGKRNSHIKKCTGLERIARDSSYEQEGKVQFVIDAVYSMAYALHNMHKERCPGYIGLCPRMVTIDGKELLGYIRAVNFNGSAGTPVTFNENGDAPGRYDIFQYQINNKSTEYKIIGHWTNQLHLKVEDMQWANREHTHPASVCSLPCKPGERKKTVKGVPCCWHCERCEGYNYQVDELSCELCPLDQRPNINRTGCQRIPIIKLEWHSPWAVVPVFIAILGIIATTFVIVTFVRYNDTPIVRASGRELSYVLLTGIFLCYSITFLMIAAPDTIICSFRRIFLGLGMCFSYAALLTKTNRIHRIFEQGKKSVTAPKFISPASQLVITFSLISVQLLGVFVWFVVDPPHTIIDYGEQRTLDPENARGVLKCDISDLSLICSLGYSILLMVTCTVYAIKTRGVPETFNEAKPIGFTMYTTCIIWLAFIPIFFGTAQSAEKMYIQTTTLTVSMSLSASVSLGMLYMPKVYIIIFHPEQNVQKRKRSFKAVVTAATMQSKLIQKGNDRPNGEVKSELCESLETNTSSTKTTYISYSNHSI
On to `COc1ccc(CCN(Cc2cc3cc(C)cc(C)c3nc2Cl)C(=O)C2CC2)cc1`, for which the z-score stood at 0.324.
As to `CCOC(=O)Nc1ccc2c(c1)N(C(=O)CCN1CCOCC1)c1ccccc1S2=O` (stereo unspecified), the z-score is -0.405.
For `Cc1cc(NC(=O)CSc2nnc(-c3cccnc3)n2C2CCCCC2C)no1` (stereo unspecified), the z-score turned out to be 0.291.
To `CCCCNC(=O)NS(=O)(=O)c1ccc(NS(=O)(=O)c2ccccc2)cc1` belongs -0.028.
For `CCOC(=O)c1sc(C)c(C(=O)NCC(C)(C)CN(C)C)c1N` the value was 0.753; for `COc1cc(/C=N/Nc2ccc3ccccc3c2)ccc1OC(=O)c1ccco1`, -0.378.
For `O=C(/C=C/c1ccccc1)Nc1ncn[nH]1` the value was -0.388; for `CCCc1ccc(Oc2cc(N3CCOCC3)nc(-c3ccccc3)n2)cc1`, -0.257; for `COc1ccc(-n2nc3c(c2NC(=O)c2ccc(Br)cc2)CS(=O)C3)cc1` (stereo unspecified), -0.0829.
For the compound `c1ccc2c(CSCc3nc4ccccc4[nH]3)cccc2c1`, the z-score is -0.202.
To `CCc1nc(N2CCCC(C)C2)c2oc3ccccc3c2n1` (stereo unspecified) belongs 0.0468.
`CC1=CC(c2ccccc2)=Nc2ccc(C)cc2N1` had a z-score of -0.179.
For `Clc1ccc(/C=N/NC2=Nc3cccc4cccc2c34)cc1` the value was 0.161; for `Nc1nc(SCc2ccccc2Cl)n[nH]1`, 0.109; for `Cc1ccc(S(=O)(=O)N2CCSC2c2ccco2)cc1` (stereo unspecified), -0.143.
Compound `O=c1c(Cl)c(N/N=C/c2ccc(Br)cc2)cnn1-c1ccccc1` displayed a z-score of -0.0885.
`O=C(CSc1nnc(-c2ccncc2)o1)NCc1ccc(Cl)cc1` returned a z-score of -0.143.
For `COc1cc(/C=N/NC(=O)CCc2ccccc2)ccc1O` the value was 0.127.
For `O=C(Cn1c(=O)oc2ccccc21)NCc1ccco1` the value was 0.455.
Regarding `CN(C)c1oc(-c2ccccc2Cl)nc1P(=O)(c1ccccc1)c1ccccc1`, the z-score is -0.353.
`Cc1cc(C)nc(/N=C(/NC(=O)Nc2ccc(Cl)c(Cl)c2)Nc2ccccc2)n1` yielded a z-score of -0.279.
`C=CCSc1nnc(NC(=O)c2cccc(S(=O)(=O)N(C)c3ccccc3)c2)s1` returned a z-score of 0.542.
To `O=C(Cn1nnc(-c2ccccc2Cl)n1)N/N=C/c1ccc2c(c1)OCO2` belongs 0.343; to `Cc1cc(C)n2nc(C(=O)N/N=C/c3c4ccccc4cc4ccccc34)nc2n1`, -0.604.
To `COCCn1c(SCC(=O)NC(=O)NC(C)(C)C)nc2ccccc21` belongs -0.643.
Compound `N#C/C(=C\c1ccc([N+](=O)[O-])o1)c1nc2ccccc2[nH]1` registered a z-score of 0.245.
To `O=C(N/N=C/c1ccccc1O)c1cc(=O)[nH]c2ccccc12` belongs -0.0583; to `Cc1cc(C(=O)N/N=C/c2ccc[nH]2)n[nH]1`, -0.0646.
`CC(=O)Nc1cccc(-c2csc(NCc3ccco3)n2)c1` yielded a z-score of -0.826.
To `CCOCC(=O)Nc1ccc(S(=O)(=O)N2CCOCC2)cc1` belongs 0.177; to `COc1ccccc1OCC(=O)NC1CCCCCC1`, -0.55.
To `COc1cccc(C(=O)Nc2ccccc2)c1` belongs -0.0644.
For `CCNS(=O)(=O)c1ccc(NS(=O)(=O)c2cc(C)ccc2C)cc1` the value was 0.0943; for `N#C/C(=C\c1cn(CC(=O)N2CCCC2)c2ccccc12)C(=O)NCc1ccc2c(c1)OCO2`, -0.396.
`Cc1ccc(Cn2nnc3c(=O)n(CC(=O)N4CCCCC4)cnc32)cc1` gave a z-score of -0.106.
For `CCOC(=O)c1sc2cccc(F)c2c1N` the value was 0.117.
For `O=C(/C=C/c1ccc(Cl)cc1)Nc1ccc(N2CCCCC2)cc1` the value was -0.165; for `Cc1cc(C)cc(N2C(=O)C3C4C=CC(C4)C3C2=O)c1` (stereo unspecified), -0.0297; for `CCOC(=O)C1CCCN(C(=O)CSc2nccn2C)C1` (stereo unspecified), 2.87.
For `Cc1c(NC(=O)Nc2ccccc2Cl)sc(=S)n1C` the value was -0.172.
In turn, `CCOC(=O)Cc1csc(NC(=O)c2c(-c3c(F)cccc3Cl)noc2C)n1` showed a z-score of -0.309.
`Cn1c(SCc2c(F)cccc2Cl)nnc1-c1cccs1` showed a z-score of -0.501.
To `O=C(c1cc(-c2cccs2)on1)N1CCN(C(c2ccccc2)c2ccccc2)CC1` belongs 0.308; to `COC(=O)c1c(CSc2ccc(Cl)cc2)noc1C(=O)NCc1ccco1`, -0.229.
`N#CC1=C(Nc2ccccc2)SC=C(c2ccccc2)N=C1N1CCOCC1` had a z-score of 0.284.
To `COc1ccc(Cl)cc1S(=O)(=O)N1CCN(c2ccc(F)cc2)CC1` belongs 0.0144; to `CC1CCN(c2ncnc3nc[nH]c23)CC1`, 0.121.
For `NC(=S)Nc1ccc(Oc2ccc(NC(N)=S)cc2)cc1` the value was 0.865; for `CCCCCOc1ccc(NC(=O)C2OC3OC(C)(C)OC3C3OC(C)(C)OC23)cc1` (stereo unspecified), -0.234; for `COc1ccc(Br)cc1CN(C)CC(=O)Nc1ccccc1Cl`, -0.228.
For `O=C(Nc1ccc(O)cc1)c1ccc(C(=O)c2ccccc2)o1` the value was 0.143; for `COC(=O)c1ccccc1NC(=O)c1nc2nc(C)cc(C(F)F)n2n1`, -0.276.
On to `CCC(=O)Nc1ccc2nc(C)n(Cc3ccccc3Cl)c(=O)c2c1`, for which the z-score turned out to be 0.861.
In turn, `CCOC(=O)CCC(=O)N1CCOCCOCCN(C(=O)CCC(=O)OCC)CCOCCOCC1` returned a z-score of -0.135.
To `Cc1ccc(C)c(NS(=O)(=O)c2cc(C(=O)NCc3ccco3)ccc2C)c1` belongs -0.408.
In turn, `CCOC(=O)C1(S(=O)(=O)c2ccc(Cl)cc2)CCN(Cc2ccc(C)cc2)CC1` showed a z-score of 1.14.
To `O=C(NCCCN1CCCCC1)c1ccc2c(c1)NC(=O)C(N1CCCCC1)S2` (stereo unspecified) belongs 0.905; to `CN(CCC#N)C(=S)Nc1ccc(Oc2ccccc2)cc1`, -0.139.
To `O=C1CCC(=O)N1OCCCOc1ccc2c(c1)CCC2` belongs -0.84; to `Cc1cc(C[n+]2ccccc2)c2nsnc2c1`, 0.0632; to `CCN(CC)S(=O)(=O)c1ccc(NC(=O)COC(=O)CCc2cc(OC)c(OC)c(OC)c2)cc1`, -0.165.
Take `Cc1cccc(Cn2c(Cc3ccccc3)nc3ccccc32)c1`: the z-score was -0.403.
To `CCc1nnc(NC(=O)c2sc3nc4c(cc3c2N)CCCCC4)s1` belongs -0.297; to `Cc1ccc(-c2cc(C(F)F)n3ncc(C(=O)N4CCN(c5cccc(C)c5C)CC4)c3n2)cc1`, -0.482.
In turn, `COc1ccc(-c2cc(=O)oc3cc(OCc4nn[nH]n4)ccc23)cc1` showed a z-score of -0.385.
To `O=C1CCCN1c1ccc(S(=O)(=O)Nc2ccc3c(c2)OCCO3)cc1` belongs 0.0224.
The compound `CCN(CC)C(=O)Cn1cnc2sc(C(=O)Nc3cc(OC)c(OC)c(OC)c3)c(C)c2c1=O` showed a z-score of -0.344.
To `CCCc1cc(=O)n2[nH]c(NCc3ccccc3F)nc2n1` belongs -0.425; to `O=C(c1ccc(Br)cc1)N(C1=NCCCCS1)c1ccccc1`, -0.223; to `Cc1ccc(CC(=O)N/N=C/c2ccc(OC(=O)c3ccc([N+](=O)[O-])cc3)cc2)cc1`, -0.299.
As to `COc1ccc(/C=N/N2CCOCC2)cc1COc1ccc(Cl)cc1`, the z-score came out at 0.0786.

Values taken from PubChem BioAssay AID488969 (Vanderbilt High Throughput Screening Facility, 2010).
